Among all 390,000 compounds or so, about 150 (0.038%) were called active. Inconclusive results, whose numbers are uncertain, are shown with a selection of clear calls. Calls follow the shape of the dose curve; as a rule, active = well fitted inhibition curve with a large enough effect; inconclusive = small, poorly fitted or top-dose-only effect; inactive = no such curve, though single readings can be large or run the other way. Where the call is inconclusive, the potency comes from a doubtful curve fit.
molecular target: Regulator of G-protein signaling 4 (Homo sapiens) (UniProt P49798); experiment: Inhibitors of Regulator of G Protein Signaling (RGS) 4: qHTS; conditions: Transcreener GDP fluorescence polarization, RGS4-accelerated GTP hydrolysis; series mostly up to 114 µM; also: nearly all actives have a fitted effect of over 75% in size
UniProt P49798, sequence (P49798 whole entry, looked up): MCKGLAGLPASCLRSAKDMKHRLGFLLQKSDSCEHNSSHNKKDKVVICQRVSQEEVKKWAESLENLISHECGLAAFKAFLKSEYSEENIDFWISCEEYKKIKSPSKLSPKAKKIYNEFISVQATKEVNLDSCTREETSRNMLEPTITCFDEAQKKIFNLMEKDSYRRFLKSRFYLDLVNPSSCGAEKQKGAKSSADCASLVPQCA
Procedure, shortened: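 MLSMR compounds (23 nl, pin-transferred) preincubated 10 min at room temperature with a 500nM (2x) first reagent, then RGS4 at 900nM (2x) plus Transcreener GDP mix added; fluorescence polarization (620/688 nm) read before and after 90 min at 30 °C.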
Potency is read from the fitted curve at half-maximal effect; tags tell the direction and shape of the fitted curve.

SMILES | Potency
CCC1C/C(=C\c2cc(OC)c(OC)cc2OC)C(=O)/C(=C/c2cc(OC)c(OC)cc2OC)C1 (configuration not stated) | inconclusive: 89.1 µM [inhibitor, partial curve, poor fit]
COc1ccc(CCNC(=O)CCn2c(=O)c3ccccc3n(Cc3c(C)cc(C)cc3C)c2=O)cc1OC | inactive
COc1ccc(S(N)(=O)=O)cc1C(=O)OCC(=O)NC(C)(C#N)C1CC1 (configuration not stated) | inconclusive: 100 µM [inhibitor, partial curve, poor fit]
Cc1cc(C(=O)N/N=C/c2ccc(Br)o2)n[nH]1 | inactive
COc1ccc(/C=C2/SC(=O)N(CC(O)Cn3c4ccccc4c4ccccc43)C2=O)cc1 (configuration not stated) | inconclusive: 89.1 µM [inhibitor, single point]
COc1cc(C)c(CN2CCC(Cc3ccccc3)CC2)cc1C | inactive
COc1ccc(C(=O)CCN2CCCCCC2)cc1 | inconclusive: 100 µM [inhibitor, partial curve, poor fit]
CC(C)(C)c1ccc(S(=O)(=O)c2cnc(SCC(=O)Nc3ccc(F)c(Cl)c3)[nH]c2=O)cc1 | inconclusive: 89.1 µM [inhibitor, single point]
CCN1c2ccccc2N(C)C1(C)c1ccccc1 (configuration not stated) | inconclusive: 44.7 µM [inhibitor, partial curve, poor fit]
CCOC(=O)C1(CCCc2ccccc2)CCN(C(=O)C2CCCN(C(N)=O)C2)CC1 (configuration not stated) | inactive
COc1cc(C(=O)Nc2cccc(OCc3cc(=O)n4c(C)csc4n3)c2)cc(OC)c1OC | inactive
O=C(O)CCNc1cc(N2CCN(C(=O)c3ccco3)CC2)c2noc3c2c1C(=O)c1ccccc1-3 | inconclusive: 31.6 µM [inhibitor, full curve, poor fit]
O=C(NC1CCCCC1)Sc1ccc(Cl)cc1 | inconclusive: 44.7 µM [inhibitor, partial curve, poor fit]
COc1ccc(CNC(=O)c2sc(=S)n(-c3ccc(OC)cc3)c2N)cc1 | inconclusive: 50.1 µM [inhibitor, partial curve, poor fit]
O=C(Nc1ccc(NC(=S)NC(=O)c2cccs2)cc1)c1ccco1 | inconclusive: 39.8 µM [inhibitor, full curve, poor fit]
Cn1c(SCC(=O)Nc2ccc(NC(=O)c3ccccc3F)cc2)nnc1-c1ccncc1 | inconclusive: 50.1 µM [inhibitor, partial curve, poor fit]
C=CCSc1nc2ccsc2c(=O)n1-c1cccnc1 | inconclusive: 44.7 µM [inhibitor, partial curve, poor fit]
O=C1/C(=C/c2ccncc2)SC(=S)N1Nc1ccccc1 | inconclusive: 17.8 µM [inhibitor, full curve, poor fit]
Nc1cc(S(=O)(=O)N2CCCCC2)ccc1N1CCCCC1 | inactive
O=C1C=C(C2OC(CO)C(O)C2O)C(=O)N1 (configuration not stated) | inconclusive: 28.2 µM [inhibitor, full curve, poor fit]
COc1ccc(OCC2c3cc(OC)c(OC)cc3CCN2C(=O)C(C)C)cc1 (configuration not stated) | inconclusive: 56.2 µM [inhibitor, partial curve, poor fit]

SMILES | Potency
CC(C)CC(CSc1ccc(Br)cc1)N1CCN(C)CCC1=O (configuration not stated) | inactive
Cc1ccc(NC(=O)/C=C/c2ccc3c(c2)OCO3)cc1S(=O)(=O)N1CCOCC1 | inconclusive: 100 µM [inhibitor, single point]
CCCn1nnc(NC(=O)c2ccccc2Cl)n1 | inactive
CCOC(=O)C(C#N)C(c1cccnc1)c1c(C)[nH][nH]c1=O (configuration not stated) | inconclusive: 44.7 µM [inhibitor, partial curve, poor fit]
CN1CCc2c(sc(NC(=O)c3ccc(S(=O)(=O)N4CCCC4)cc3)c2C(N)=O)C1 | inconclusive: 79.4 µM [inhibitor, single point]
O=C(c1ccc(Cl)c(Cl)c1)N1CCC(=O)N(C(CO)Cc2ccccc2)CC1 (configuration not stated) | inconclusive: 44.7 µM [inhibitor, partial curve, poor fit]
CC(=O)Nc1ccc(C2=NN(C)C(=NCc3ccccc3)SC2)cc1 | inconclusive: 28.2 µM [inhibitor, full curve, poor fit]
Cc1occc1-c1nnc(SCC(=O)c2ccc(Cl)cc2)n1C | inconclusive: 56.2 µM [inhibitor, partial curve, poor fit]
COC(=O)CCNC(=O)c1ccc2nc(Cc3ccc(OC)c(OC)c3)oc2c1 | inactive
O=C(COc1ccccc1)NNC(=S)NC(=O)c1ccc(Cl)cc1Cl | inconclusive: 79.4 µM [inhibitor, partial curve, poor fit]
Cc1n[nH]c(C)c1CCCCOc1ccccc1 | inconclusive: 70.8 µM [inhibitor, partial curve, poor fit]
CCCCOC(=O)Nc1nnc(-c2ccccc2OC)s1 | inactive
O=C(O)CN1C(=O)/C(=C\c2cc(Br)ccc2OCc2ccc(Cl)cc2Cl)SC1=S | inconclusive: 79.4 µM [inhibitor, partial curve, poor fit]
CSC1=NSC2=NC(=O)/C(=C/c3coc4ccccc4c3=O)C(=N)N12 | inconclusive: 79.4 µM [inhibitor, single point]
Nc1cc(OC(=O)c2ccco2)nn1S(=O)(=O)c1ccc(F)cc1 | inconclusive: 89.1 µM [inhibitor, single point]
COc1cc(/C=C(\C#N)C(=O)c2ccc(O)c(O)c2)cc(I)c1O | inconclusive: 23.8 µM [inhibitor, partial curve, poor fit]
CC1CCc2c(sc(NS(=O)(=O)c3ccccc3)c2C(=O)OC(C)C)C1 (configuration not stated) | inconclusive: 56.2 µM [inhibitor, partial curve, poor fit]
COc1cccc(C(=O)O/N=C(\N)c2ccccn2)c1OC | inconclusive: 35.5 µM [inhibitor, full curve, poor fit]
NC1=NCC2c3ccccc3Cc3ccccc3N12 (configuration not stated) | inconclusive: 37.6 µM [inhibitor, partial curve, poor fit]
O=C(O)c1ccc2c(c1)C(=O)N(c1ccc(/C=C/C(=O)c3ccccc3)cc1)C2=O | inconclusive: 56.2 µM [inhibitor, partial curve, poor fit]
Cc1cc(NC(=O)Cn2nc(C(F)(F)F)c3c2CCC3)no1 | inconclusive: 89.1 µM [inhibitor, single point]

SMILES | Potency
Cc1c2cc(O)c(=O)cc-2oc2cc(O)c(O)cc12 | inconclusive: 31.6 µM [inhibitor, full curve, poor fit]
CCN(CC)S(=O)(=O)c1ccc(OCCNS(C)(=O)=O)cc1 | inconclusive: 31.6 µM [inhibitor, full curve, poor fit]
NNS(=O)(=O)c1ccc(N2CCCC2=O)c([N+](=O)[O-])c1 | inconclusive: 17.8 µM [inhibitor, full curve, poor fit]
CC[n+]1c(C)sc2c3ccsc3ccc21 | inconclusive: 79.4 µM [inhibitor, partial curve, poor fit]
CCN(CC)C(=O)c1cn(-c2ccccc2)nc1-c1ccc2c(c1)OCCO2 | inconclusive: 89.1 µM [inhibitor, single point]
Cc1ccc(-c2nc3ccccc3c(=O)n2NC(=S)N(C)C)cc1 | inconclusive: 79.4 µM [inhibitor, partial curve, poor fit]
CCc1ccc(NC(=O)CCn2ccnc2C)cc1 | inconclusive: 56.2 µM [inhibitor, partial curve, poor fit]
CCCSc1ncc(Cl)c(C(=O)N(Cc2ccccc2)c2ccc(OC)cc2)n1 | inactive
CCC12CN3CCN(CC(C3)/C1=N\NC(=O)c1ccc(Cl)cc1)C2 | inconclusive: 79.4 µM [inhibitor, partial curve, poor fit]
Cc1c2c(n3c(nc4ccccc43)c1C#N)N(CCN(C)C)CC2 | inactive
O=C1c2cccc3cccc(c23)C(=O)N1CCCCCc1n[nH]c(=S)o1 | inconclusive: 10 µM [inhibitor, full curve, poor fit]
Cc1cccc2sc(N(Cc3cccnc3)C(=O)CCOc3ccccc3)nc12 | inconclusive: 79.4 µM [inhibitor, partial curve, poor fit]
COc1cc(Cl)c(C)cc1NC(=O)c1cc2c(=O)oc3ccccc3c2s1 | inconclusive: 100 µM [inhibitor, single point]
O=C(CNS(=O)(=O)c1ccccc1)N/N=C\c1ccc(Cl)cc1 | inconclusive: 39.8 µM [inhibitor, partial curve, poor fit]
O=c1[nH][nH]c(=O)c2c(NS(=O)(=O)c3ccccc3)cccc12 | inconclusive: 79.4 µM [inhibitor, partial curve, poor fit]
CCc1ccc(-n2cc(-c3ccc(F)cc3)[n+]3c2SCCC3)cc1 | inconclusive: 89.1 µM [inhibitor, single point]
Cc1cccc(-c2nc(CSCC(=O)N3CCN(c4ccccn4)CC3)c(C)o2)c1 | inconclusive: 89.1 µM [inhibitor, single point]
NC(=O)c1ccc(NC(=O)COC(=O)/C=C/c2cn(-c3ccccc3)nc2-c2cccnc2)cc1 | inconclusive: 44.7 µM [inhibitor, partial curve, poor fit]
CC1CCC2(CC1)NC(=S)N(C(C)(C)C)N2 (configuration not stated) | inconclusive: 50.1 µM [inhibitor, partial curve, poor fit]
CC(=O)Nc1ccc(S(=O)(=O)N2CCN(Cc3cccc([N+](=O)[O-])c3)CC2)cc1 | inconclusive: 89.1 µM [inhibitor, partial curve, poor fit]

Reference: PubChem BioAssay AID504845 (National Center for Advancing Translational Sciences (NCATS), 2011)
